# From PubChem BioAssay AID1671193 (National Center for Advancing Translational Sciences (NCATS), 2021)
# Out of some 150,000 compounds screened, about 180 (0.12%) were called active. The shares of active, inactive and inconclusive entries below differ from those in the screen. Calls follow the shape of the dose curve; as a rule, active = well fitted cell-killing curve with a large enough effect; inconclusive = small, poorly fitted or top-dose-only effect, or effect the other way; inactive = flat fitted curve, though single readings scatter. Potencies beside an inconclusive call are fits to weak or partial responses and may not hold up.
# Test: GF-AFC viability counterscreen for inhibitors of alpha-synuclein gene (SNCA) expression; also: nearly all actives have a fitted effect of over 30% in size;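 as to activity change, negative = cytotoxicity: 0% = DMSO-treated cells and -100% = medium-only wells without cells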
# Details: HEK-293-SNCA-luc viability, GF-AFC fluorescence, 24 h; activity change, negative = cytotoxicity: at 57.1 µM (top of the series) unless noted
# How it was run: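 Cytotoxicity counterscreen: after 24 h compound treatment of genome-edited SNCA-luciferase HEK-293 cells, live-cell protease substrate GF-AFC read by fluorescence after 30 min; activity scaled between DMSO (0%) and medium-only (-100%), curves Hill-fitted.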
# Potency is read from the fitted curve at half-maximal effect; tags tell the direction and shape of the fitted curve.
SMILES,"activity change, negative = cytotoxicity",Potency
CCc1ccc(NC(=O)N(C)CC2CCOC2)cc1 (stereo not given),inactive: -0.444%,
O=C(CN1CCOc2c(O)cc(-c3csc4ccccc34)cc2C1)N1CCOCC1,,"inconclusive: 35.5 µM [cytotoxic, single point]"
CC(=O)NC[C@@H]1C=C(C)[C@H](Cc2nc3ccccc3n2C)C[C@H]1C(C)C,,"inconclusive: 44.7 µM [cytotoxic, partial curve, poor fit]"
CCNS(=O)(=O)c1ccc(NC(=O)CSc2nc(-c3ccco3)cc(C(F)(F)F)n2)cc1,,"inconclusive: 28.2 µM [cytotoxic, partial curve, poor fit]"
COc1ncccc1-c1cnc2[nH]cc(CC(=O)NC3CCOCC3)c2c1,inactive: 2.65% [at 87.6 µM],
O=C(NCc1ccccc1)c1cc(-c2ccc(Cl)cc2Cl)c2nncn2n1,inactive: -13.9% [at 12.5 µM],
CN1Cc2ncnc(NCCc3ccccc3F)c2CN(c2ccccc2)C1=O,inactive: 1.48%,
COCCNC(=O)N1CCc2nc(N3CCN(C)CC3)sc2C1,,"inconclusive: 6.31 µM [cytotoxic, single point]"
CN1CCc2[nH]cnc2C12CCN(C(=O)c1cc(=O)[nH]c3ccccc13)CC2,inactive: -21%,
Cc1nc2ccn(Cc3ccccc3)c(=O)c2cc1C(=O)N1CCN(c2ccc(F)cc2)CC1,,"inconclusive: 0.282 µM [rising, full curve, poor fit]"
CC1(C)[C@H](Cc2cc(COc3ccccc3)on2)C[C@@H]1NC(=O)Nc1ccccc1,,"inconclusive: 31.6 µM [cytotoxic, single point]"
CC(C)Cn1c(=O)c(C(=O)N2CCN(C(=O)Nc3ccccc3)CC2)nc2cccnc21,inactive: -0.783%,
CCn1cc(/C=C(\NC(=O)c2ccc(OC)cc2)C(=O)NCCCn2ccnc2)c2ccccc21,,"inconclusive: 10 µM [cytotoxic, partial curve, poor fit]"
COc1cccc(Cn2cc(C(=O)c3ccccc3)c(=O)c3cc4c(cc32)OCO4)c1,,"inconclusive: 22.4 µM [cytotoxic, single point]"
Cc1ccc(NC(=O)c2ccc(CN3CCN(C)CC3)cc2)cc1Nc1nc(-c2cccnc2)cs1,inactive: -22.8%,
O=C(O)CCC(=O)N1CCC2(CC1)Cc1ccccc1N(C(=O)C1CCCC1)C2,inactive: 3.73%,
COCCN1C(=O)c2ccccc2C(C(=O)NCCc2c[nH]c3ccccc23)C12CCCC2 (stereo not given),inactive: -18.3%,
Clc1cnccc1CN1CCNc2cc(-c3ccccc3)ncc2C1,inactive: -21.8% [at 87.6 µM],
C=C1C(=O)O[C@@H]2C(OC(=O)/C(C)=C\C)/C(C)=C\C(=O)/C=C(\C)C[C@H](O)[C@@H]12 (stereo not given in full),,"inconclusive: 11.7 µM [cytotoxic, partial curve, poor fit]"
O=c1c2nc(Nc3cccc(F)c3)ccc2ncn1Cc1ccccc1,,"inconclusive: 39.8 µM [cytotoxic, single point]"

SMILES,"activity change, negative = cytotoxicity",Potency
COc1ccc(OCC(=O)Nc2ccc(-c3nc4cc(C)cc(C)c4o3)cc2)cc1,,"inconclusive: 15.8 µM [rising, partial curve, poor fit]"
COc1ccc2c(c1)cc(CNc1ccc(OC)c(OC)c1)c(=O)n2CC(=O)Nc1ccccc1C,,"inconclusive: 25.1 µM [cytotoxic, single point]"
Cc1ccc(Cn2nnc3c(=O)[nH]c(C4CCN(C(=O)Cc5ccccc5F)CC4)nc32)cc1,,"inconclusive: 28.2 µM [cytotoxic, partial curve, poor fit]"
O=C(NCc1cccc(C(F)(F)F)c1)c1ccc2nnc(-c3cccc(C(F)(F)F)c3)n2c1,,"inconclusive: 22.4 µM [cytotoxic, partial curve, poor fit]"
CN(C)c1nc(-c2cccnc2)nc2ccccc12,,"inconclusive: 3.16 µM [cytotoxic, partial curve, poor fit]"
Cc1ccc2c(c1)N(CCCC(=O)N1CCC(C)(c3noc(-c4ccccc4)n3)CC1)C(=O)CO2,,"inconclusive: 39.8 µM [cytotoxic, single point]"
O=C(Nc1ncc([N+](=O)[O-])s1)c1ccccc1O,,"inconclusive: 18.9 µM [cytotoxic, partial curve, poor fit]"
O=C(COc1ccccc1)NCCn1cccc1-c1nc(-c2ccc3c(c2)OCO3)no1,inactive: -10.5%,
Cc1noc(C)c1[S+](=O)([O-])NC1CCN(C(=O)c2ccc(-c3cccs3)cc2)CC1,,"inconclusive: 7.08 µM [cytotoxic, single point]"
CN1CCN(c2ncc3nc(-c4ccc(Cl)cc4)c(=O)n(Cc4ccc(F)cc4)c3n2)CC1,,"inconclusive: 2.51 µM [rising, partial curve, poor fit]"
COc1ccc(Nc2ccc3c(n2)CN(Cc2ccccc2F)C(=O)CO3)cc1,,"inconclusive: 50.1 µM [cytotoxic, single point]"
Cc1[nH]c2ccccc2c1C1(O)C(=O)N(Cc2ccccc2)c2ccc(Br)cc21 (stereo not given),,"inconclusive: 39.8 µM [cytotoxic, single point]"
O=C(CN1C(=O)COc2ccc(S(=O)(=O)NC3CCCC3)cc21)Nc1ccc(F)c(Cl)c1,,"inconclusive: 14.1 µM [cytotoxic, partial curve, poor fit]"
O=C(c1ccc(Cl)nc1)N1CCC2(CC1)CCN(Cc1cccs1)c1ccccc1O2,,"inconclusive: 11.2 µM [cytotoxic, partial curve, poor fit]"
O=C(NCCn1cccc1-c1nc(-c2ccc3c(c2)OCO3)no1)C1(c2ccccc2)CC1,,"inconclusive: 12.6 µM [cytotoxic, partial curve]"
c1ccc(N2CCC(Cn3ccnc3-c3cc4n(n3)CCCNC4)C2)cc1 (stereo not given),,"inconclusive: 39.8 µM [cytotoxic, single point]"
COc1ccc(-n2nc3c(N4CCCC(C(=O)NCc5ccccc5C)C4)nnc(C)c3c2C)cc1 (stereo not given),,"inconclusive: 31.6 µM [cytotoxic, partial curve, poor fit]"
COC[C@H]1NC(=O)CC[C@H]1C(=O)Nc1cccc(OC)c1,,"inconclusive: 7.94 µM [cytotoxic, single point]"
CCN(CC)S(=O)(=O)c1ccc2c(c1)N(CC(=O)Nc1cccc(C(C)=O)c1)C(=O)CO2,,"inconclusive: 17.8 µM [cytotoxic, partial curve]"
CCOC(=O)C1CCN(C(=O)c2cc(-c3cc(Cl)cc(Cl)c3)c3nncn3n2)CC1,inactive: -1.94%,

SMILES,"activity change, negative = cytotoxicity",Potency
COC(=O)N1CCCN(c2nccc(Nc3ccc(C)cc3)n2)C1,inactive: -12.8% [at 12.5 µM],
Cc1ccc(CNC(=O)c2ccc(-c3ccc(N4CCSCC4)nc3)cc2)o1,,"inconclusive: 35.5 µM [cytotoxic, partial curve, poor fit]"
c1ccc(-c2cc3c(cn2)CN(Cc2ccc4[nH]ccc4c2)CCN3)cc1,,"inconclusive: 8.91 µM [cytotoxic, partial curve, poor fit]"
CC(C)NS(=O)(=O)c1cc(C(=O)O)cc(-n2cccn2)c1,inactive: 11.4%,
C#CCOc1c(Br)cc(C2C(C(=O)OC)=C(C)NC3=C2C(=O)c2ccccc23)cc1OCC (stereo not given),,"inconclusive: 2 µM [cytotoxic, full curve, poor fit]"
COc1ncccc1-c1nccn2c(C3CN(Cc4c[nH]c5ccccc45)C3)ncc12,,"inconclusive: 56.2 µM [cytotoxic, single point]"
O=C(c1cc(F)cc(Cl)c1)N1CCc2nc(-c3cccc(F)c3)[nH]c2C1,,"inconclusive: 15.8 µM [cytotoxic, partial curve, poor fit]"
CC(C)(C#N)c1ccc(N2C(=O)OCc3cnc4ccc(-c5cnc6ccccc6c5)cc4c32)cc1,,"inconclusive: 2.99 µM [cytotoxic, partial curve]"
COc1ccc(Cl)cc1NC(=O)c1c(NCc2cccnc2)sc2c1CCCC2,,"inconclusive: 3.16 µM [cytotoxic, full curve, poor fit]"
CCN(CC)Cc1ccc2cc(COC(=O)Nc3ccc(C(=O)NO)cc3)ccc2c1,,"inconclusive: 5.97 µM [cytotoxic, full curve, poor fit]"
Cc1cc(F)ccc1OCC(=O)c1ccc2c(c1)N(C(C)C(=O)NCc1ccc(F)cc1)C(=O)CO2 (stereo not given),,"inconclusive: 10 µM [cytotoxic, partial curve]"
Cc1ccc2c(n1)N(C)[C@H](CO)CCN(Cc1ccc(C#N)cc1)C2,inactive: -5.07% [at 87.6 µM],
COc1ccc(-c2nc(C3CC3)nc3c2CN(C(=O)c2ccc(C(F)(F)F)cc2)CC3)cc1,,active: 10 µM
CC1=C[C@@H](CN2C(=O)C(C)=C(C)C2=O)[C@H](C(C)C)C[C@H]1Cc1nc2c(C)cccc2[nH]1,,"inconclusive: 35.5 µM [cytotoxic, partial curve, poor fit]"
CC(C)C[C@@H](C=O)NC(=O)[C@H](CC(C)C)NC(=O)[C@H](CC(C)C)NC(=O)OCc1ccccc1,,"inconclusive: 3.83 µM [cytotoxic, partial curve, poor fit]"
CN(C(=O)CSc1nc2ccc(NC(=O)c3ccco3)cc2s1)c1ccccc1,,"inconclusive: 25.1 µM [cytotoxic, single point]"
O=C(c1ccc2c(c1)OCO2)N1CCC(c2nnc3n2CCNC3)CC1,inactive: 3.67%,
COc1cccc(CN(C)Cc2ccc(-c3ccccc3)cc2)c1,,"inconclusive: 56.2 µM [rising, single point]"
N#Cc1cccc(C(=O)NC2CCCN(c3cc(-c4ccc(F)cc4)[nH]n3)C2)c1 (stereo not given),,"inconclusive: 17.8 µM [cytotoxic, partial curve, poor fit]"
COCC(=O)N1CCC2(CC1)CCN(Cc1cccs1)c1ccccc1O2,inactive: -7.06%,
